# The list shows a part of the results.
# B1: X56-1 (Clostridium perfringens), P26831 (protein)
# chain: MGSSHHHHHHSSGLVPRGSHMASDPNRIIATYISNRQDAPTGNPDNIFDNNASTELVYKNPNRIDVGTYVGVKYSNPITLNNVEFLMGANSNPNDTMQKAKIQYTVDGREWIDLEEGVEYTMPGAIKVENLDLKVRGVRLIATEARENTWLGVRDINVNKKEDSNSGVEF
# Assays:
# Experiment in all cases: glycan array binding signal (z-score within array); higher = stronger binding
# Details in all cases: glycan notation: IUPAC condensed, linker removed
# [1] = target: Neu5Ac(a2-3)Gal(b1-3)[Neu5Ac(a2-6)]GalNAc
# How it was run: (§1)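 Glycan array binding is given as a within-array Z-score, which can be read as non-binding when negative. The arrays, 3228 of them, came from the Consortium for Functional Glycomics database and were retained only where the protein sequence was available. Z-scores were averaged across arrays of the same protein sequence at different concentrations or buffers and across linkers.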
# Neu5Ac(a2-3)Gal(b1-4)Glc = target: Neu5Ac(a2-3)Gal(b1-4)Glc
# How it was run: as §1
# [2] = target: Neu5Ac(a2-3)Gal(b1-4)GlcNAc
# How it was run: as §1
# [3] = target: Neu5Ac(a2-3)Gal(b1-4)GlcNAc(b1-3)Gal(b1-3)GlcNAc
# How it was run: as §1
# [4] = target: Neu5Ac(a2-3)Gal(b1-4)GlcNAc(b1-3)Gal(b1-4)GlcNAc
# How it was run: as §1
# [5] = target: Neu5Ac(a2-3)Gal(b1-4)GlcNAc(b1-3)Gal(b1-4)GlcNAc(b1-3)Gal(b1-4)GlcNAc
# How it was run: as §1
# [6] = target: Neu5Ac(a2-3)Gal(b1-4)GlcNAc(b1-3)Gal(b1-4)[Fuc(a1-3)]GlcNAc
# How it was run: as §1
# [7] = target: Neu5Ac(a2-3)Gal(b1-4)GlcNAc(b1-6)[Gal(b1-3)]GalNAc
# How it was run: as §1
# [8] = target: Neu5Ac(a2-3)Gal(b1-4)GlcNAc6S
# How it was run: as §1
# [9] = target: Neu5Ac(a2-3)Gal(b1-4)[Fuc(a1-3)]GlcNAc
# How it was run: as §1
# [10] = target: Neu5Ac(a2-3)Gal(b1-4)[Fuc(a1-3)]GlcNAc(b1-3)Gal
# How it was run: as §1
# [11] = target: Neu5Ac(a2-3)Gal(b1-4)[Fuc(a1-3)]GlcNAc(b1-3)Gal(b1-4)GlcNAc
# How it was run: as §1
# [12] = target: Neu5Ac(a2-3)Gal(b1-4)[Fuc(a1-3)]GlcNAc(b1-3)Gal(b1-4)[Fuc(a1-3)]GlcNAc(b1-3)Gal(b1-4)[Fuc(a1-3)]GlcNAc
# How it was run: as §1
# [13] = target: Neu5Ac(a2-3)Gal(b1-4)[Fuc(a1-3)]GlcNAc6S
# How it was run: as §1
# [14] = target: Neu5Ac(a2-3)Gal6S(b1-4)GlcNAc
# How it was run: as §1
# [15] = target: Neu5Ac(a2-3)Gal6S(b1-4)[Fuc(a1-3)]GlcNAc
# How it was run: as §1
# Neu5Ac(a2-3)GalNAc = target: Neu5Ac(a2-3)GalNAc
# How it was run: as §1
# [16] = target: Neu5Ac(a2-3)GalNAc(b1-4)GlcNAc
# How it was run: as §1
# [17] = target: Neu5Ac(a2-3)[GalNAc(b1-4)]Gal(b1-4)Glc
# How it was run: as §1
# [18] = target: Neu5Ac(a2-3)[GalNAc(b1-4)]Gal(b1-4)GlcNAc
# How it was run: as §1
# [19] = target: Neu5Ac(a2-3)[Neu5Ac(a2-6)]GalNAc
# How it was run: as §1
# [20] = target: Neu5Ac(a2-6)Gal(b1-4)GlcNAc
# How it was run: as §1
# [21] = target: Neu5Ac(a2-6)Gal(b1-4)GlcNAc(b1-2)Man(a1-3)[Neu5Ac(a2-6)Gal(b1-4)GlcNAc(b1-2)Man(a1-6)]Man(b1-4)GlcNAc(b1-4)GlcNAc
# How it was run: as §1
# [22] = target: Neu5Ac(a2-6)Gal(b1-4)GlcNAc(b1-3)Gal(b1-4)GlcNAc
# How it was run: as §1
# [23] = target: Neu5Ac(a2-6)Gal(b1-4)GlcNAc(b1-3)Gal(b1-4)[Fuc(a1-3)]GlcNAc(b1-3)Gal(b1-4)[Fuc(a1-3)]GlcNAc
# How it was run: as §1
# [24] = target: Neu5Ac(a2-6)Gal(b1-4)GlcNAc6S
# How it was run: as §1
# Neu5Ac(a2-6)GalNAc = target: Neu5Ac(a2-6)GalNAc
# How it was run: as §1
# [25] = target: Neu5Ac(a2-6)GalNAc(b1-4)GlcNAc
# How it was run: as §1
# Neu5Ac(a2-8)Neu5Ac = target: Neu5Ac(a2-8)Neu5Ac
# How it was run: as §1
# [26] = target: Neu5Ac(a2-8)Neu5Ac(a2-3)Gal(b1-4)Glc
# How it was run: as §1
# [27] = target: Neu5Ac(a2-8)Neu5Ac(a2-3)[GalNAc(b1-4)]Gal(b1-4)Glc
# How it was run: as §1
# [28] = target: Neu5Ac(a2-8)Neu5Ac(a2-8)Neu5Ac
# How it was run: as §1
# [29] = target: Neu5Ac(a2-8)Neu5Ac(a2-8)Neu5Ac(a2-3)Gal(b1-4)Glc
# How it was run: as §1
# [30] = target: Neu5Ac(a2-8)Neu5Ac(a2-8)Neu5Ac(a2-3)[GalNAc(b1-4)]Gal(b1-4)Glc
# How it was run: as §1
# [31] = target: Neu5Ac(a2-8)Neu5Ac(a2-8)Neu5Ac(a2-8)Neu5Ac(a2-3)[GalNAc(b1-4)]Gal(b1-4)Glc
# How it was run: as §1
# [32] = target: Neu5Ac9Ac(a2-6)Gal(b1-4)GlcNAc
# How it was run: as §1
# [33] = target: Neu5Gc(a2-3)Gal(b1-3)GlcNAc
# How it was run: as §1
# [34] = target: Neu5Gc(a2-3)Gal(b1-3)[Fuc(a1-4)]GlcNAc
# How it was run: as §1
# Neu5Gc(a2-3)Gal(b1-4)Glc = target: Neu5Gc(a2-3)Gal(b1-4)Glc
# How it was run: as §1
# [35] = target: Neu5Gc(a2-3)Gal(b1-4)GlcNAc
# How it was run: as §1
# [36] = target: Neu5Gc(a2-3)Gal(b1-4)[Fuc(a1-4)]GlcNAc
# How it was run: as §1
# [37] = target: Neu5Gc(a2-6)Gal(b1-4)GlcNAc
# How it was run: as §1
# Neu5Gc(a2-6)GalNAc = target: Neu5Gc(a2-6)GalNAc
# How it was run: as §1
binder,measurement,setting,value
B1,glycan array binding signal (z-score),[1],-0.342
same,glycan array binding signal (z-score),Neu5Ac(a2-3)Gal(b1-4)Glc,-0.25
same,glycan array binding signal (z-score),[2],-0.097
same,glycan array binding signal (z-score),[3],-0.472
same,glycan array binding signal (z-score),[4],9.11
same,glycan array binding signal (z-score),[5],-0.337
same,glycan array binding signal (z-score),[6],-0.236
same,glycan array binding signal (z-score),[7],-0.233
same,glycan array binding signal (z-score),[8],-0.296
same,glycan array binding signal (z-score),[9],-0.338
same,glycan array binding signal (z-score),[10],0.071
same,glycan array binding signal (z-score),[11],0.004
same,glycan array binding signal (z-score),[12],-0.163
same,glycan array binding signal (z-score),[13],1.06
same,glycan array binding signal (z-score),[14],-0.26
same,glycan array binding signal (z-score),[15],-0.221
same,glycan array binding signal (z-score),Neu5Ac(a2-3)GalNAc,-0.264
same,glycan array binding signal (z-score),[16],-0.259
same,glycan array binding signal (z-score),[17],-0.338
same,glycan array binding signal (z-score),[18],-0.387
same,glycan array binding signal (z-score),[19],-0.193
same,glycan array binding signal (z-score),[20],-0.238
same,glycan array binding signal (z-score),[21],-0.264
same,glycan array binding signal (z-score),[22],-0.318
same,glycan array binding signal (z-score),[23],-0.436
same,glycan array binding signal (z-score),[24],-0.039
same,glycan array binding signal (z-score),Neu5Ac(a2-6)GalNAc,-0.26
same,glycan array binding signal (z-score),[25],0.236
same,glycan array binding signal (z-score),Neu5Ac(a2-8)Neu5Ac,0.047
same,glycan array binding signal (z-score),[26],0.954
same,glycan array binding signal (z-score),[27],0.045
same,glycan array binding signal (z-score),[28],-0.066
same,glycan array binding signal (z-score),[29],-0.334
same,glycan array binding signal (z-score),[30],-0.067
same,glycan array binding signal (z-score),[31],-0.219
same,glycan array binding signal (z-score),[32],-0.18
same,glycan array binding signal (z-score),[33],-0.144
same,glycan array binding signal (z-score),[34],-0.273
same,glycan array binding signal (z-score),Neu5Gc(a2-3)Gal(b1-4)Glc,-0.411
same,glycan array binding signal (z-score),[35],-0.119
same,glycan array binding signal (z-score),[36],0.014
same,glycan array binding signal (z-score),[37],-0.154
same,glycan array binding signal (z-score),Neu5Gc(a2-6)GalNAc,-0.354

# From the supplement of paper PMC8728848
